Experimental data from PMC5700166.
The list shows a part of the results, in another mix than the full data. The list includes weakly bound sequences.

Target: T1, GST-Co-NF-kB (UniProt F1ARL5)
T1 sequence: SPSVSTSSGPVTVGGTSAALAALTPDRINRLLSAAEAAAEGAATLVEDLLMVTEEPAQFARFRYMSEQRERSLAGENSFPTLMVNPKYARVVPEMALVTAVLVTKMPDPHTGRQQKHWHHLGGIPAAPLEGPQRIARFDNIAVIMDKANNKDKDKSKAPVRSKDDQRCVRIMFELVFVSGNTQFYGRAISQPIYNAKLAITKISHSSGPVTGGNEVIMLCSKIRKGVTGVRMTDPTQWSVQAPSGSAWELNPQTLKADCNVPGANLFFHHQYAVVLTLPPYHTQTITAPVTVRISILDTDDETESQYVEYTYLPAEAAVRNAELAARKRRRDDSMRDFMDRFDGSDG
Assay: protein-binding microarray (PBM)
Settings: PBM: ~300 nM protein, 6 mM HEPES pH 7.8, 80 mM KCl, 0.5 mM EDTA, 0.5 mM EGTA, 6% glycerol, 35 ng/ul poly-dIdC, 1% milk, 1 h, room temperature; high values mean tight binding; double strand, one strand shown

Sequence	binding signal [z-score]
CCGATTAACATCAAAAAATTACCTGATGTTAATCGGGTCTTGATTCGCTTGACGCTGCTG	0.749
CCGATTAACATCACATTTTCCCCTGATGTTAATCGGGTCTTGATTCGCTTGACGCTGCTG	9.7
CCGATTAACATCAGGGAAATACATGATGTTAATCGGGTCTTGATTCGCTTGACGCTGCTG	4.08
CCGATTAACATCACCCACTTCCCTGATGTTAATCGGGTCTTGATTCGCTTGACGCTGCTG	1.4
CCGATTAACATCAGAAAAAACCCTGATGTTAATCGGGTCTTGATTCGCTTGACGCTGCTG	0.846
CCGATTAACATCAGATGGGAAAATGATGTTAATCGGGTCTTGATTCGCTTGACGCTGCTG	2.47
CCGATTAACATCAATAAAGTCCCTGATGTTAATCGGGTCTTGATTCGCTTGACGCTGCTG	0.908
CCGATTAACATCAGGCATCCCCATGATGTTAATCGGGTCTTGATTCGCTTGACGCTGCTG	1.82
CCGATTAACATCAAAATTTCCCTTGATGTTAATCGGGTCTTGATTCGCTTGACGCTGCTG	5.01
CCGATTAACATCACTTATCCCCCTGATGTTAATCGGGTCTTGATTCGCTTGACGCTGCTG	6.68
CCGATTAACATCACGGAAGTCCCTGATGTTAATCGGGTCTTGATTCGCTTGACGCTGCTG	0.398
CCGATTAACATCAGGGGGAAAGATGATGTTAATCGGGTCTTGATTCGCTTGACGCTGCTG	8.03
CCGATTAACATCACGGAAAACCCTGATGTTAATCGGGTCTTGATTCGCTTGACGCTGCTG	0.353
CCGATTAACATCACGGGGAAATCTGATGTTAATCGGGTCTTGATTCGCTTGACGCTGCTG	10.1
CCGATTAACATCAGAATGCCCCCTGATGTTAATCGGGTCTTGATTCGCTTGACGCTGCTG	2.56
CCGATTAACATCAGGGGGTTAGATGATGTTAATCGGGTCTTGATTCGCTTGACGCTGCTG	1.94
CCGATTAACATCAAAGTTTCCCCTGATGTTAATCGGGTCTTGATTCGCTTGACGCTGCTG	10.6
CCGATTAACATCAGGAATTGCCCTGATGTTAATCGGGTCTTGATTCGCTTGACGCTGCTG	0.51
CCGATTAACATCAACGGTGGGAATGATGTTAATCGGGTCTTGATTCGCTTGACGCTGCTG	2.19
CCGATTAACATCAGGCCTCCCCCTGATGTTAATCGGGTCTTGATTCGCTTGACGCTGCTG	4.14

Sequence	binding signal [z-score]
CCGATTAACATCAGATTCTCCCCTGATGTTAATCGGGTCTTGATTCGCTTGACGCTGCTG	6.76
CCGATTAACATCAGAAATGTCCCTGATGTTAATCGGGTCTTGATTCGCTTGACGCTGCTG	1.29
CCGATTAACATCACTACTTTCCCTGATGTTAATCGGGTCTTGATTCGCTTGACGCTGCTG	3.41
CCGATTAACATCAAGGAAACCCCTGATGTTAATCGGGTCTTGATTCGCTTGACGCTGCTG	2.91
CCGATTAACATCAGGGGGCATTATGATGTTAATCGGGTCTTGATTCGCTTGACGCTGCTG	2.64
CCGATTAACATCAGAAAAACACCTGATGTTAATCGGGTCTTGATTCGCTTGACGCTGCTG	0.354
CCGATTAACATCACAGAATCCCCTGATGTTAATCGGGTCTTGATTCGCTTGACGCTGCTG	3.42
CCGATTAACATCAAGTTCCCCCATGATGTTAATCGGGTCTTGATTCGCTTGACGCTGCTG	10.1
CCGATTAACATCAGGAATTCACCTGATGTTAATCGGGTCTTGATTCGCTTGACGCTGCTG	-0.0751
CCGATTAACATCATGGGGGGAAATGATGTTAATCGGGTCTTGATTCGCTTGACGCTGCTG	9.84
CCGATTAACATCAATTTACCCACTGATGTTAATCGGGTCTTGATTCGCTTGACGCTGCTG	2.34
CCGATTAACATCAGGAACTACCCTGATGTTAATCGGGTCTTGATTCGCTTGACGCTGCTG	1.33
CCGATTAACATCAGGGACTTCACTGATGTTAATCGGGTCTTGATTCGCTTGACGCTGCTG	-0.354
CCGATTAACATCACTAAACCCCCTGATGTTAATCGGGTCTTGATTCGCTTGACGCTGCTG	3.32
CCGATTAACATCAAGGGAAATTCTGATGTTAATCGGGTCTTGATTCGCTTGACGCTGCTG	4.57
CCGATTAACATCAGGGAATCTTATGATGTTAATCGGGTCTTGATTCGCTTGACGCTGCTG	3.74
CCGATTAACATCAACGTGGGAAATGATGTTAATCGGGTCTTGATTCGCTTGACGCTGCTG	2.91
CCGATTAACATCAGGAAATTACCTGATGTTAATCGGGTCTTGATTCGCTTGACGCTGCTG	0.0522
CCGATTAACATCACGGGTTTTCCTGATGTTAATCGGGTCTTGATTCGCTTGACGCTGCTG	1.18
CCGATTAACATCAGGCGAGTCCCTGATGTTAATCGGGTCTTGATTCGCTTGACGCTGCTG	0.0939

Target: T2, GST-Dm-Relish (UniProt Q94527)
T2 sequence: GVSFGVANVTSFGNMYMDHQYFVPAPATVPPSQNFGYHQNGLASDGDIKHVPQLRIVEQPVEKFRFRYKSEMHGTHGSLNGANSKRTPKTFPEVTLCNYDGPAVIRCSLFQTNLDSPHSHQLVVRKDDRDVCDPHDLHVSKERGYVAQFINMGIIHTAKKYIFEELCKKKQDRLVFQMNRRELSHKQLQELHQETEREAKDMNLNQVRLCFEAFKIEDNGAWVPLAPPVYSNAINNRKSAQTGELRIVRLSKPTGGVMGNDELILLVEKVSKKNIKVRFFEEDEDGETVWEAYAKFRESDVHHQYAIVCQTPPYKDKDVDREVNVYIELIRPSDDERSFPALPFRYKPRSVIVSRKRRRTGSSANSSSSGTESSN
Assay: protein-binding microarray (PBM)
Settings: PBM: ~300 nM protein, 6 mM HEPES pH 7.8, 80 mM KCl, 0.5 mM EDTA, 0.5 mM EGTA, 6% glycerol, 35 ng/ul poly-dIdC, 1% milk, 1 h, room temperature; Ap Aiptasia and Nv Nematostella (sea anemones) / Co Capsaspora / Aq Amphimedon (sponge) / Dm Drosophila / Hu human; RHD is the Rel homology domain; high values mean tight binding; most listed sequences are background and not binding sites; double strand, one strand shown

Sequence	binding signal [z-score]
CCGATTAACATCAGGGAAATACATGATGTTAATCGGGTCTTGATTCGCTTGACGCTGCTG	8.18
CCGATTAACATCACCCACTTCCCTGATGTTAATCGGGTCTTGATTCGCTTGACGCTGCTG	0.872
CCGATTAACATCAGAAAAAACCCTGATGTTAATCGGGTCTTGATTCGCTTGACGCTGCTG	6.15
CCGATTAACATCAGATGGGAAAATGATGTTAATCGGGTCTTGATTCGCTTGACGCTGCTG	0.61
CCGATTAACATCAGGCATCCCCATGATGTTAATCGGGTCTTGATTCGCTTGACGCTGCTG	3.01
CCGATTAACATCACGGAAGTCCCTGATGTTAATCGGGTCTTGATTCGCTTGACGCTGCTG	6.53
CCGATTAACATCACGGGGAAATCTGATGTTAATCGGGTCTTGATTCGCTTGACGCTGCTG	6.19
CCGATTAACATCAGGAATTGCCCTGATGTTAATCGGGTCTTGATTCGCTTGACGCTGCTG	0.953
CCGATTAACATCAACGGTGGGAATGATGTTAATCGGGTCTTGATTCGCTTGACGCTGCTG	0.686
CCGATTAACATCAGAAAAACACCTGATGTTAATCGGGTCTTGATTCGCTTGACGCTGCTG	3.66
CCGATTAACATCAGGAATTCACCTGATGTTAATCGGGTCTTGATTCGCTTGACGCTGCTG	6.05
CCGATTAACATCAATTTACCCACTGATGTTAATCGGGTCTTGATTCGCTTGACGCTGCTG	0.809
CCGATTAACATCAGGGACTTCACTGATGTTAATCGGGTCTTGATTCGCTTGACGCTGCTG	7.9
CCGATTAACATCAAGGGAAATTCTGATGTTAATCGGGTCTTGATTCGCTTGACGCTGCTG	3.68
CCGATTAACATCAACGTGGGAAATGATGTTAATCGGGTCTTGATTCGCTTGACGCTGCTG	0.458
